Results as given in publication PMC6212790.
The list shows a part of the results. At the low end of the ranking the order means little.

Target: T1, GST-Rok-C97-191 (UniProt O34857)
T1 sequence: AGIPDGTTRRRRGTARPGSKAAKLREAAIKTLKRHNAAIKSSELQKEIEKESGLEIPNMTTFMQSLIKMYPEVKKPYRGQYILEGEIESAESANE
Assay: protein binding microarray;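 further: rank score from −0.5 (least bound) to 0.5 (best bound)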
Conditions: Rok is a gene silencer of Bacillus subtilis; high values mean tight binding; most listed sequences are background and not binding sites; double strand, one strand shown

Row | Sequence | binding signal [E-score]
1 | CAATGGGA | 0.041
2 | CGGGATCA | -0.197
3 | GGCAATGA | 0.0108
4 | AACTTGTA | 0.164
5 | AATATTCC | 0.106
6 | CATTAAAA | -0.0737
7 | CGGCGCAC | -0.264
8 | GACTTAAA | -0.0231
9 | AGCTTGAC | -0.0959
10 | GTAATCAA | 0.133
11 | CCCATAAA | 0.0363
12 | ACAGCAAC | 0.0658
13 | ACCAGCAG | -0.226
14 | CAAATGGG | -0.0772
15 | CAGGGTGG | -0.212
16 | AAATCCAC | -0.0171
17 | CTATCAAC | 0.151
18 | AACACCCA | -0.114
19 | AAGACCTA | -0.0446
20 | CGGTGTAA | 0.00876
21 | AATGCCGA | -0.0405
22 | AGTGCGCG | -0.204
23 | GCGAGGAA | -0.197
24 | CTCATAAG | -0.126
25 | TATCCATA | 0.178

Row | Sequence | binding signal [E-score]
26 | TCGATTCA | 0.0914
27 | ATTATTTC | 0.215
28 | CAGCGTTC | -0.283
29 | AATTGATG | 0.176
30 | CGGGCTAA | -0.128
31 | CCTAGCTC | -0.127
32 | CCCACCGG | -0.217
33 | ATACCCGC | -0.0886
34 | CATTGTGC | 0.154
35 | ACTTGGCG | -0.022
36 | CTCAGCGA | -0.0352
37 | CTCGATTC | 0.106
38 | TACGGAAA | 0.0938
39 | ACTAAGCC | -0.163
40 | AGGCCTGG | -0.37
41 | ATAGTTAG | 0.35
42 | CATCGGCA | -0.208
43 | CAGACACA | 0.067
44 | TGTGCCAA | -0.16
45 | AAGTGAAC | -0.18
46 | GGGCAGAA | -0.131
47 | ATCCCCGC | -0.217
48 | CATATCAG | -0.0728
49 | AAGGAGGA | -0.0693
50 | AGTGTCTG | -0.11

Row | Sequence | binding signal [E-score]
51 | ACTGCAGT | 0.144
52 | ACCTGCAT | 0.185
53 | AACATTTC | 0.0259
54 | ACTACAGG | 0.0574
55 | ACCAGTCG | -0.0573
56 | GCTATGAA | -0.0129
57 | CGGACGGA | -0.267
58 | GGTGTGTA | 0.189
59 | AATAGTTC | 0.343
60 | GACCGAAC | -0.311
61 | GAGCGCTA | -0.00065
62 | CCGCTACA | -0.000498
63 | ATCCCCGA | -0.144
64 | AGAGCGCG | 0.0509
65 | GTTCGCCA | -0.0157
66 | CGAAGCGC | -0.146
67 | AGCTCTAG | 0.0105
68 | ACCCGAAC | -0.035
69 | GAGACCTA | -0.147
70 | ATCTTCAG | -0.0198
71 | CTCATAAA | -0.0294
72 | CCTCTCGC | -0.186
73 | AGGGCGAA | -0.139
74 | ATTGCAGC | -0.0924
75 | CTGCACCC | -0.22

Row | Sequence | binding signal [E-score]
76 | AACAAGTA | 0.371
77 | ATATGTCA | 0.0956
78 | AGGCCTGA | -0.155
79 | CAAATGAG | -0.175
80 | ATCTGGAC | -0.151
81 | AATTAGTA | 0.408
82 | TCCCCTAA | -0.201
83 | GTTTGCTA | 0.207
84 | GCGTCCAC | -0.238
85 | ACTAAACG | 0.0596
86 | ATGCGACC | -0.271
87 | CCGATCCG | -0.168
88 | GAGTCGAC | -0.162
89 | ACACGGAC | -0.202
90 | TCCCCCCA | -0.128
91 | CACCCACA | -0.0813
92 | AGGGGAAT | -0.0867
93 | AACAGCAG | -0.0424
94 | AAGGCCGT | -0.245
95 | TAAGGCTA | -0.0394
96 | AACAACCA | -0.00264
97 | AGAGAAAT | 0.278
98 | ATCGTCTC | -0.146
99 | GGTACACC | -0.00389
100 | ATCGAGCG | 0.0214

Row | Sequence | binding signal [E-score]
101 | CGAGGGTC | -0.146
102 | ACGTGACA | -0.0371
103 | AATGGTGG | -0.0858
104 | ACTGCCGC | -0.16
105 | ACTGCTAT | 0.186
106 | CGACTGCG | -0.243
107 | CTGGCGTA | 0.0573
108 | ACGCCTCC | -0.137
109 | GCTGATAA | 0.19
110 | ATCCTCAG | -0.0161
111 | TCAATAAA | 0.186
112 | ATACCAGG | 0.158
113 | ACGTAACG | -0.0897
114 | GCCGGAAA | -0.1
115 | GACAACGA | -0.105
116 | CTCCCTCC | -0.156
117 | CAAAAAAC | 0.0557
118 | ATGTTAGA | 0.155
119 | GATCCGGC | -0.281
120 | GAAAGTCC | -0.0693
121 | AACCTAAT | 0.0397
122 | CGATTTCA | -0.247
123 | AGCTTGGG | -0.139
124 | CAAGAAGA | -0.0481
125 | AGCGCGAG | -0.0438

Row | Sequence | binding signal [E-score]
126 | CGGAAACC | -0.0164
127 | ATCGTCGA | -0.0168
128 | CCTGCTTC | -0.26
129 | CACTTGCG | -0.0481
130 | ACAGGAAT | -0.262
131 | AGTCGACA | -0.0961
132 | CGTGGCCA | -0.306
133 | CGCTTAAA | -0.127
134 | CTCCCATC | -0.161
135 | GCTGTCCA | -0.0683
136 | GTATCCAA | 0.116
137 | AAGAACAT | 0.00812
138 | AGCCCGTA | -0.174
139 | GGGATCCA | -0.17
140 | AATCACGA | -0.0422
141 | AGTAAAGG | -0.114
142 | CGGGTCTC | -0.0666
143 | CCATGATC | -0.055
144 | AATTAGCG | 0.203
145 | CCTCCATA | -0.0411
146 | CATGGCAG | -0.315
147 | ATGTGACG | -0.144
148 | AGGATAGG | 0.0759
149 | CGGATGAA | 0.00172
150 | GTACGTCA | -0.0688

Row | Sequence | binding signal [E-score]
151 | CATGGAGG | -0.181
152 | CAACCCGG | -0.249
153 | ACAAACCC | -0.00398
154 | AGGCTGTG | -0.00296
155 | CCTACTCG | -0.00475
156 | GTCGTATA | 0.0892
157 | AACATTAA | 0.124
158 | ACGAAGTA | -0.0414
159 | AGGCACGG | -0.257
160 | CCGCGCCC | -0.205
161 | GTGACCAC | -0.266
162 | ACTTATCA | 0.183
163 | GTCTGCCA | -0.159
164 | AGAGTATA | 0.261
165 | GCGCTGAA | -0.126
166 | AAGACGCA | -0.0653
167 | AAGTGGTG | -0.0322
168 | CACTTTTA | 0.0588
169 | AGTCAGTG | 0.0467
170 | ATTTGACA | 0.138
171 | GACCATGA | -0.0412
172 | AATTAACC | 0.149
